Whole data set: some 33,000 sequences, median “E-score (-0.5 to 0.5)” near -0.032, cut for the highest 2% near 0.36. This is one part of the list.

In the experiment the target is T1, Sko1 (UniProt Q02100).
T1 sequence: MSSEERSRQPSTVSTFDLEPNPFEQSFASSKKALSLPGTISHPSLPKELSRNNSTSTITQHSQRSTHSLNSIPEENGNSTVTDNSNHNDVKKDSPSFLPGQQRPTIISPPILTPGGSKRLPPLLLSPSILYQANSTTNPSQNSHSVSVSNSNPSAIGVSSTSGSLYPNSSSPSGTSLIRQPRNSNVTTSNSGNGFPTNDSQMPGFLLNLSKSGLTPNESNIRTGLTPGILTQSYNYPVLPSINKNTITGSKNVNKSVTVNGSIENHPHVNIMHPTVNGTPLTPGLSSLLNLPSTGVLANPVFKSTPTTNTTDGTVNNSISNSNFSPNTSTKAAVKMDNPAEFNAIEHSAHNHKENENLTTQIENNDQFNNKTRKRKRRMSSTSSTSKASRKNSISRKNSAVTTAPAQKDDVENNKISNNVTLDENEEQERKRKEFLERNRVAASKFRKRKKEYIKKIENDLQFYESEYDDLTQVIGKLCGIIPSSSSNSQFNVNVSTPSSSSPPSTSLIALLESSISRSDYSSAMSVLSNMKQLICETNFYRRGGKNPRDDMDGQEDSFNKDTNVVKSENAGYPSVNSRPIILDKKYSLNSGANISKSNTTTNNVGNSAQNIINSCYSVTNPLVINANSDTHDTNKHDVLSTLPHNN
Nature of the experiment: PBM E-score (8-mer binding enrichment) (E-score (-0.5 to 0.5)); higher = stronger / more preferred TF binding; most listed sequences are background and not binding sites. Particulars: protein concentration: 200 nM; construct: GST-full length. The gist of the method: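 Universal all-10-mer Agilent arrays, fresh or stripped once, were converted to double-stranded form by primer extension. GST-tagged yeast transcription factors from PURExpress in vitro transcription/translation, full-length or DNA-binding domain only, were applied at about 100-200 nM and detected with fluorescent anti-GST. After masliner normalisation, the Universal PBM Analysis Suite scored each ungapped eight-base word together with its reverse complement by E-score.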
With AATCCCGG, the “PBM E-score” value is -0.283. As to GGCAGCAA, the “PBM E-score” value is -0.206. For the sequence CTTCTGCA, the “PBM E-score” value was found to be 0.0202. The same measure for GCGAACGA: 0.0197; for ACACCCTC: -0.189. For ATGCGACA the value was 0.16; for GGCCGGCC, -0.32. On to ACAATTTA, for which the “PBM E-score” value came out at 0.0364.

On to AACGCACG, for which the “PBM E-score” value was 0.31. For TCACACAA the value was 0.12; for GAATCTGA, 0.017; for ACGTCCGA, 0.2. For the sequence AGTCTTAC, the “PBM E-score” value is 0.122.

In the case of AGCTTGCA, the “PBM E-score” value came to 0.0429. For AAGTTTGA, the “PBM E-score” value was -0.0137. For CACGAGCC the value was -0.282; for AATCGTGT, 0.0793. In the case of AAGATGTC, the “PBM E-score” value is 0.0266. Take CTTTCCAA: the “PBM E-score” value worked out at 0.033. The same measure for AAGCACAT: 0.0115; for AACTCGGA: -0.282. For AGACGTCA the value was 0.484. The same measure for CATGGTGG: -0.224; for GCAGACCC: -0.359; for CGTATTCC: 0.317. Take CGGCAGCC: the “PBM E-score” value is -0.384.

AGTCCATA: the “PBM E-score” value was -0.057. The same measure for AATCTTAC: 0.211; for GATCCGAC: -0.122; for ACTCGGCT: -0.284. The same measure for AGGACGTA: 0.374. Regarding GGTCGGAA, the “PBM E-score” value is -0.117.

Take AAAACAGG: the “PBM E-score” value is -0.163.

In the case of CAGTCAAC, the “PBM E-score” value is -0.244. The same measure for ATGCACAG: -0.00909.

As for AGACAACC, the “PBM E-score” value was -0.16. For AATGTCAA, the “PBM E-score” value was 0.0308. For CAGTTTTC the value was -0.0732; for AGCCTGAG, -0.218.

Regarding CATTAAGA, the “PBM E-score” value was -0.00803. Take TATGCAGA: the “PBM E-score” value was 0.0134.

As for ACATAAAG, the “PBM E-score” value was determined as 0.185. For AGCAGCCC the value was -0.337; for GGGCTCTA, -0.169. Regarding CCCATCGA, the “PBM E-score” value was -0.0167. As for ACAGGTTC, the “PBM E-score” value is -0.291. For AAGTAGGA the value was 0.118; for CGATACCG, -0.121; for ACTTGCTA, -0.109.

With GTAAGTGA, the “PBM E-score” value came out at 0.215. For CGATATGA the value was 0.166; for CTCCTCCC, -0.201; for AATTGCTA, 0.153. For the sequence ACCCCCGT, the “PBM E-score” value is -0.321.

Turning to CCTTACGC, the “PBM E-score” value is 0.303. The same measure for AATTACTA: 0.195; for CATATTAC: 0.313. The same measure for GCTGAAAC: 0.0455; for AGTTGCTG: -0.0248; for CATACTCC: 0.132. The same measure for AAGATACG: 0.315. Take CGCATAAG: the “PBM E-score” value was 0.109. For AATGCTGG the value was -0.121. As for ACGGGGCA, the “PBM E-score” value is -0.0579. On to AGACTCGC, for which the “PBM E-score” value was -0.259.

For CCCGCGGA, the “PBM E-score” value was -0.214. The same measure for ATTCTGGG: -0.116; for AAACCAAG: -0.00877; for ATGAGTCG: -0.0823. As to GACAGCTA, the “PBM E-score” value was -0.129.

ATACAGGC: the “PBM E-score” value was -0.194.

For CCTGCAAC, the “PBM E-score” value was -0.0407. For ATTAAATA the value was 0.288; for AGATGTAC, -4e-05; for ATTATCAG, 0.0813.

CGATGAGA: the “PBM E-score” value is -0.0352. In the case of AGGGTAAC, the “PBM E-score” value is -0.163. The same measure for CCTATGTA: -0.0157; for GTATAGAC: 0.155; for AGCAGGTA: -0.194.

In the case of CGCAAACG, the “PBM E-score” value amounted to 0.231.

For the sequence CAAACCGG, the “PBM E-score” value was -0.177.

Regarding ACCAAGGC, the “PBM E-score” value is -0.197. With CGGCGCTA, the “PBM E-score” value was -0.251.

GCAGATGA: the “PBM E-score” value is -0.0175. With AGTGTCCG, the “PBM E-score” value is -0.00066. ATAGTCAC: the “PBM E-score” value turned out to be 0.134.

AGGATATC: the “PBM E-score” value is -0.103. The same measure for GCTCTGAA: -0.00853; for ATCCGGGA: -0.295. The same measure for ACGGTAAC: 0.169; for AAGGTCCC: -0.0151. As to CAGACCGA, the “PBM E-score” value is -0.265. The same measure for CTTGATCA: 0.1.

For the origin of these results see the supplement of paper PMC3334620.
